According to the RNAGym collection of RNA variant scans (doi:10.1073/pnas.2313332121):
Variants at the background level are over-represented here.

B1: TPR 5TU (parent)
chain: GGAUCUUCUCGAUCUAACAAAAAAGACAAAUCUGCCACAAAGCUUGAGAGCAUCUUCGGAUGCAGAGGCGGCAGCCUUCGGUGGCGCGAUAGCGCCAACGUUCUCAACUAUGACACGCAAAACGCGUGCUCCGUUGAAUGGAGUUUAUCAUG

Variants of: B1
Test: polymerase ribozyme fitness, log enrichment relative to wild type (log ratio); higher = more active; in vitro selection for triplet polymerase activity
In short: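 A heterodimeric triplet polymerase ribozyme had each of its subunits mutagenized by PCR into a library, which was transcribed. One round of in vitro selection, done in triplicate, annealed each library with a biotinylated primer, its partner subunit and triplets, then incubated it frozen at −7 °C before gel excision of extended constructs, streptavidin-bead capture and RT-PCR. Fitness is the logarithm of genotype enrichment relative to wild-type enrichment, based on Illumina sequencing of inputs and outputs and inverse-variance-weighted replicate averages. A base-2 logarithm is used, and genotypes were kept only with ≥10 input reads and ≥1 read per output.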
In the case of G48C C51U U151G, the “polymerase ribozyme fitness (log ratio)” value is reported as ≤ -4.2.
With A49G C54U G88C C96G A110U A150G the “polymerase ribozyme fitness (log ratio)” value was ≤ -4.2.
For A49G G58C, the “polymerase ribozyme fitness (log ratio)” value was -0.689.
With A49G C69U the “polymerase ribozyme fitness (log ratio)” value was -1.39.
In the case of A49G G92U U111G, the “polymerase ribozyme fitness (log ratio)” value is reported as ≤ -4.2.
In the case of A49U G84U A97G C114G, the “polymerase ribozyme fitness (log ratio)” value is reported as ≤ -4.2.
For A49C A52U U53A A60C C63U C87A C93A C99U A137U A138C, the “polymerase ribozyme fitness (log ratio)” value was ≤ -4.2.
With A49C C69U U77G C79A G84A C99A A113C C114G A142C the “polymerase ribozyme fitness (log ratio)” value was ≤ -4.2.
For A49C A60G G67U C85U C93G A97G, the “polymerase ribozyme fitness (log ratio)” value was ≤ -4.2.
With G48A C85U C99A A142G A150U the “polymerase ribozyme fitness (log ratio)” value was ≤ -4.2.
In the case of A49C G71A G92U A115G U135C U146A, the “polymerase ribozyme fitness (log ratio)” value is reported as ≤ -4.2.
In the case of A49C U109G, the “polymerase ribozyme fitness (log ratio)” value is reported as ≤ -4.2.
In the case of G48U A107C, the “polymerase ribozyme fitness (log ratio)” value is reported as ≤ -4.2.
With G48A C51U A113U C149G the “polymerase ribozyme fitness (log ratio)” value was ≤ -4.2.
With G48C C63A G83A G133C the “polymerase ribozyme fitness (log ratio)” value was -3.98.
In the case of A49G U53C A98U A121G, the “polymerase ribozyme fitness (log ratio)” value is reported as -1.87.
In the case of A49C U82A, the “polymerase ribozyme fitness (log ratio)” value is reported as ≤ -4.2.
In the case of A49C C75G C87A, the “polymerase ribozyme fitness (log ratio)” value is reported as ≤ -4.2.
In the case of A49G A91U C118A U148A, the “polymerase ribozyme fitness (log ratio)” value is reported as ≤ -4.2.
For A49U U55A G74U G92C U104G, the “polymerase ribozyme fitness (log ratio)” value was ≤ -4.2.
With A49C C123G the “polymerase ribozyme fitness (log ratio)” value was ≤ -4.2.
In the case of G48C G58C U82C C95G G100C, the “polymerase ribozyme fitness (log ratio)” value is reported as ≤ -4.2.
With A49G C51A U53C C87G the “polymerase ribozyme fitness (log ratio)” value was ≤ -4.2.
In the case of G48A G67U G80C C85U C132U, the “polymerase ribozyme fitness (log ratio)” value is reported as ≤ -4.2.
With A49G U53A the “polymerase ribozyme fitness (log ratio)” value was -1.54.
In the case of A49G C99G A106G C116G C129A A138U U148G C149G, the “polymerase ribozyme fitness (log ratio)” value is reported as ≤ -4.2.
With A49C A52G A73C the “polymerase ribozyme fitness (log ratio)” value was ≤ -4.2.
In the case of A49C C69G, the “polymerase ribozyme fitness (log ratio)” value is reported as ≤ -4.2.
With A49G C79G the “polymerase ribozyme fitness (log ratio)” value was ≤ -4.2.
With G48A A73G C87G A89U C96A G136A the “polymerase ribozyme fitness (log ratio)” value was ≤ -4.2.
With A49U G133U the “polymerase ribozyme fitness (log ratio)” value was -3.93.
For G48C U55A C93G, the “polymerase ribozyme fitness (log ratio)” value was -3.87.
In the case of A49G C93G A120C, the “polymerase ribozyme fitness (log ratio)” value is reported as ≤ -4.2.
With A49G G50U C87G U144G the “polymerase ribozyme fitness (log ratio)” value was ≤ -4.2.
With G48U C87A C96G A121G G141C A147G the “polymerase ribozyme fitness (log ratio)” value was ≤ -4.2.
For G48A C96A U127A, the “polymerase ribozyme fitness (log ratio)” value was ≤ -4.2.
In the case of A49C G152U, the “polymerase ribozyme fitness (log ratio)” value is reported as ≤ -4.2.
In the case of A49C A122G A142C, the “polymerase ribozyme fitness (log ratio)” value is reported as ≤ -4.2.
For G48C C103G G133U, the “polymerase ribozyme fitness (log ratio)” value was ≤ -4.2.
For A49C G65U G83U A89U C93A G133U U151C, the “polymerase ribozyme fitness (log ratio)” value was ≤ -4.2.
In the case of G48U C54A C93G, the “polymerase ribozyme fitness (log ratio)” value is reported as ≤ -4.2.
With A49G C75U C87A the “polymerase ribozyme fitness (log ratio)” value was ≤ -4.2.
With G48C G62C C108G A137U U146A the “polymerase ribozyme fitness (log ratio)” value was ≤ -4.2.
For A49C C54G, the “polymerase ribozyme fitness (log ratio)” value was ≤ -4.2.
With A49C C57G A91U C108G A122G the “polymerase ribozyme fitness (log ratio)” value was ≤ -4.2.
In the case of A49C C85A A106C, the “polymerase ribozyme fitness (log ratio)” value is reported as ≤ -4.2.
In the case of A49C C69G A89G A110U A142U, the “polymerase ribozyme fitness (log ratio)” value is reported as ≤ -4.2.
With G48C G83U the “polymerase ribozyme fitness (log ratio)” value was -1.41.
In the case of G48C C54U G59U G68U G100A A147U, the “polymerase ribozyme fitness (log ratio)” value is reported as ≤ -4.2.
For A49G G71A A107G U139G A142U, the “polymerase ribozyme fitness (log ratio)” value was ≤ -4.2.
For A49U U56A C87A A120C A137C, the “polymerase ribozyme fitness (log ratio)” value was ≤ -4.2.
With G48C C72G G84A U90A G152A the “polymerase ribozyme fitness (log ratio)” value was ≤ -4.2.
For A49U C51U A147C, the “polymerase ribozyme fitness (log ratio)” value was -0.373.
With A49C G71A the “polymerase ribozyme fitness (log ratio)” value was ≤ -4.2.
With A49C G59C the “polymerase ribozyme fitness (log ratio)” value was ≤ -4.2.
In the case of G48A A60G A66U C79U G84C A98G A106C U111G, the “polymerase ribozyme fitness (log ratio)” value is reported as ≤ -4.2.
In the case of G48C U53G G88U U101A, the “polymerase ribozyme fitness (log ratio)” value is reported as ≤ -4.2.
With G48U C54A C87U A106C U148C the “polymerase ribozyme fitness (log ratio)” value was ≤ -4.2.
For A49G U56A G83A G140U, the “polymerase ribozyme fitness (log ratio)” value was ≤ -4.2.
In the case of A49G U61A C85G, the “polymerase ribozyme fitness (log ratio)” value is reported as ≤ -4.2.
In the case of A49U G65U G67A U130C U135G G136A U144G, the “polymerase ribozyme fitness (log ratio)” value is reported as ≤ -4.2.
With A49C A110G the “polymerase ribozyme fitness (log ratio)” value was ≤ -4.2.
In the case of A49G G58C G67C C85G G92C, the “polymerase ribozyme fitness (log ratio)” value is reported as ≤ -4.2.
With G48A U56A U109G the “polymerase ribozyme fitness (log ratio)” value was -1.39.
In the case of A49U G70U C96G, the “polymerase ribozyme fitness (log ratio)” value is reported as ≤ -4.2.
For A49G U53A G100C A119U C132A U134A G143U, the “polymerase ribozyme fitness (log ratio)” value was ≤ -4.2.
With A49C G81U G94U the “polymerase ribozyme fitness (log ratio)” value was ≤ -4.2.
In the case of A49U A60U G83A G86A A115C G143C U148G A150U, the “polymerase ribozyme fitness (log ratio)” value is reported as ≤ -4.2.
With A49C G62U A64G A73G C85G C114U G128U the “polymerase ribozyme fitness (log ratio)” value was ≤ -4.2.
With A49G C85U G117U U135C G143C the “polymerase ribozyme fitness (log ratio)” value was -4.06.
In the case of A49C A110G A150G, the “polymerase ribozyme fitness (log ratio)” value is reported as ≤ -4.2.
With A49C C75A G84A the “polymerase ribozyme fitness (log ratio)” value was ≤ -4.2.
In the case of G48C C57U G100C A121G A122G, the “polymerase ribozyme fitness (log ratio)” value is reported as ≤ -4.2.
With G48A C75U C87A G143A the “polymerase ribozyme fitness (log ratio)” value was ≤ -4.2.
For G48A C79A C99G, the “polymerase ribozyme fitness (log ratio)” value was ≤ -4.2.
For G48A U56A C75G G84U A91U U144G, the “polymerase ribozyme fitness (log ratio)” value was ≤ -4.2.
In the case of G48U C79A G88A A107G A113C G117A, the “polymerase ribozyme fitness (log ratio)” value is reported as ≤ -4.2.
With A49C U56A U61G U90A the “polymerase ribozyme fitness (log ratio)” value was ≤ -4.2.
In the case of G48U U146G, the “polymerase ribozyme fitness (log ratio)” value is reported as -1.42.
For A49C U56A, the “polymerase ribozyme fitness (log ratio)” value was ≤ -4.2.
In the case of A49U U53A C85A G136A G140A, the “polymerase ribozyme fitness (log ratio)” value is reported as ≤ -4.2.
For G48A U55C G81A G92C C114U G126A, the “polymerase ribozyme fitness (log ratio)” value was ≤ -4.2.
With G48U G58C G81C C93A C129U the “polymerase ribozyme fitness (log ratio)” value was ≤ -4.2.
